MIC of clinical C. albicans isolates, CLSI broth microdilution (ranges and time not stated); higher = less susceptible. Call: susceptible or wild type [S] / resistant or non-wild type [R] by CLSI breakpoints or epidemiological cut-offs; intermediate and dose-dependent carry no call here (the paper groups them with resistant). '<=' and '>=' mark each drug's lowest and highest value, inferred; the source prints them plain. Isolates are numbered anew.
What was measured:
Assay in all cases: CLSI broth microdilution.
[1] = compound: CCCCCOc1ccc(-c2ccc(-c3ccc(C(=O)N[C@H]4C[C@@H](O)[C@@H](O)NC(=O)[C@@H]5[C@@H](O)[C@@H](C)CN5C(=O)[C@H]([C@@H](C)O)NC(=O)[C@H]([C@H](O)[C@@H](O)c5ccc(O)cc5)NC(=O)[C@@H]5C[C@@H](O)CN5C(=O)[C@H]([C@@H](C)O)NC4=O)cc3)cc2)cc1 [anidulafungin]
[2] = compound: CC[C@H](C)C[C@H](C)CCCCCCCCC(=O)N[C@H]1C[C@@H](O)[C@@H](NCCN)NC(=O)[C@@H]2[C@@H](O)CCN2C(=O)[C@H]([C@H](O)CCN)NC(=O)[C@H]([C@H](O)[C@@H](O)c2ccc(O)cc2)NC(=O)[C@@H]2C[C@@H](O)CN2C(=O)[C@H]([C@@H](C)O)NC1=O [caspofungin]
[3] = compound: CCC(C)n1ncn(-c2ccc(N3CCN(c4ccc(OCC5COC(Cn6cncn6)(c6ccc(Cl)cc6Cl)O5)cc4)CC3)cc2)c1=O [itraconazole]
[4] = compound: C[C@@H](c1ncncc1F)[C@](O)(Cn1cncn1)c1ccc(F)cc1F [voriconazole]
[5] = compound: OC(Cn1cncn1)(Cn1cncn1)c1ccc(F)cc1F [fluconazole]
[6] = compound: C[C@@H]1[C@H](O)[C@@H](C)/C=C/C=C/C=C/C=C/C=C/C=C/C=C/[C@H](O[C@@H]2O[C@H](C)[C@@H](O)[C@H](N)[C@@H]2O)C[C@@H]2O[C@](O)(C[C@@H](O)C[C@@H](O)[C@H](O)CC[C@@H](O)C[C@@H](O)CC(=O)O[C@H]1C)C[C@H](O)[C@H]2C(=O)O [amphotericin B]
[7] = compound: CCCCCOc1ccc(-c2cc(-c3ccc(C(=O)N[C@H]4C[C@@H](O)[C@@H](O)NC(=O)[C@@H]5[C@@H](O)[C@@H](C)CN5C(=O)[C@H]([C@H](O)CC(N)=O)NC(=O)[C@H]([C@H](O)[C@@H](O)c5ccc(O)c(OS(=O)(=O)O)c5)NC(=O)[C@@H]5C[C@@H](O)CN5C(=O)[C@H]([C@@H](C)O)NC4=O)cc3)no2)cc1 [micafungin]
[8] = compound: CC[C@@H]([C@H](C)O)n1ncn(-c2ccc(N3CCN(c4ccc(OC[C@@H]5CO[C@@](Cn6cncn6)(c6ccc(F)cc6F)C5)cc4)CC3)cc2)c1=O [posaconazole]
[9] = compound: Nc1[nH]c(=O)ncc1F [flucytosine]

Test System	MIC [1]	MIC [2]	MIC [3]	MIC [4]	MIC [5]	MIC [6]	MIC [7]	MIC [8]	MIC [9]
Candida albicans isolate 97 (Erg11p: Y132H,T123I, Fur1p: R101C, Tac1p: WT)	≤ 0.015 mg/L [S]	0.015 mg/L [S]	0.06 mg/L [S]	0.25 µg/mL	4 µg/mL	0.5 mg/L [S]	0.015 mg/L [S]	0.03 mg/L [S]	0.12 mg/L [S]
Candida albicans isolate 21 (Erg11p: Y132H,T123I, Fur1p: R101C, Tac1p: WT)	≤ 0.015 mg/L [S]	0.015 mg/L [S]	0.25 mg/L [R]	0.5 µg/mL	4 µg/mL	0.5 mg/L [S]	0.015 mg/L [S]	0.06 mg/L [S]	≤ 0.06 mg/L [S]
Candida albicans isolate 119 (Erg11p: E266D, Fur1p: WT, Tac1p: I558V,A377V,F189S,N174D,M170I,K87N)	0.03 mg/L [S]	0.03 mg/L [S]	0.03 mg/L [S]	≤ 0.008 mg/L [S]	0.5 mg/L [S]	0.5 mg/L [S]	0.015 mg/L [S]	0.015 mg/L [S]	≤ 0.06 mg/L [S]
Candida albicans isolate 274 (Erg11p: E266D, Fur1p: WT, Tac1p: T885K,I558V,A430V,A377V,F189S,N174D,M170I,M170V,K87N)	0.03 mg/L [S]	0.03 mg/L [S]	0.06 mg/L [S]	≤ 0.008 mg/L [S]	0.25 mg/L [S]	1 mg/L [S]	≤ 0.008 mg/L [S]	0.03 mg/L [S]	≤ 0.06 mg/L [S]
Candida albicans isolate 83 (Erg11p: V488I,L276S,E266D, Fur1p: WT, Tac1p: N896S,I895T)	0.12 mg/L [S]	0.015 mg/L [S]	0.03 mg/L [S]	0.015 mg/L [S]	1 mg/L [S]	0.25 mg/L [S]	0.015 mg/L [S]	0.03 mg/L [S]	≤ 0.06 mg/L [S]
Candida albicans isolate 196 (Erg11p: E266D,G129A, Fur1p: WT, Tac1p: R869Q,L695F,I558V,A377V,F189S,M170V,L131I)	≤ 0.015 mg/L [S]	0.015 mg/L [S]	0.03 mg/L [S]	≤ 0.008 mg/L [S]	0.5 mg/L [S]	0.25 mg/L [S]	0.015 mg/L [S]	0.015 mg/L [S]	≤ 0.06 mg/L [S]
Candida albicans isolate 158 (Erg11p: E266D, Fur1p: WT, Tac1p: C908Y,A377V,N174D,M170I,I109N,K87N)	0.12 mg/L [S]	0.06 mg/L [S]	0.5 mg/L [R]	4 mg/L [R]	128 mg/L [R]	0.5 mg/L [S]	0.03 mg/L [S]	0.25 mg/L [R]	≤ 0.06 mg/L [S]
Candida albicans isolate 68 (Erg11p: V488I,L276S,E266D, Fur1p: WT, Tac1p: N896S,I895T)	0.03 mg/L [S]	0.03 mg/L [S]	0.06 mg/L [S]	0.015 mg/L [S]	1 mg/L [S]	0.25 mg/L [S]	0.015 mg/L [S]	0.03 mg/L [S]	≤ 0.06 mg/L [S]
Candida albicans isolate 339 (Erg11p: WT, Fur1p: WT, Tac1p: WT)	0.06 mg/L [S]	0.06 mg/L [S]	0.03 mg/L [S]	≤ 0.008 mg/L [S]	0.25 mg/L [S]	0.5 mg/L [S]	0.015 mg/L [S]	0.015 mg/L [S]	≤ 0.06 mg/L [S]
Candida albicans isolate 185 (Erg11p: WT, Fur1p: WT, Tac1p: I558V,A377V,F189S,N174D,M170I,K87N)	≤ 0.015 mg/L [S]	0.015 mg/L [S]	0.03 mg/L [S]	≤ 0.008 mg/L [S]	0.25 mg/L [S]	0.5 mg/L [S]	0.015 mg/L [S]	0.015 mg/L [S]	≤ 0.06 mg/L [S]
Candida albicans isolate 69 (Erg11p: G448E,Y132H, Fur1p: R101C, Tac1p: WT)	≤ 0.015 mg/L [S]	0.015 mg/L [S]	0.06 mg/L [S]	0.5 µg/mL	4 µg/mL	0.5 mg/L [S]	≤ 0.008 mg/L [S]	0.03 mg/L [S]	0.25 mg/L [S]
Candida albicans isolate 358 (Erg11p: V437I,E266D, Fur1p: WT, Tac1p: S937L,I895T,L695F,I558V,F189S,L131I)	0.06 mg/L [S]	0.03 mg/L [S]	0.03 mg/L [S]	0.015 mg/L [S]	1 mg/L [S]	0.25 mg/L [S]	0.015 mg/L [S]	0.015 mg/L [S]	≤ 0.06 mg/L [S]
Candida albicans isolate 7 (Erg11p: V437I,E266D, Fur1p: WT, Tac1p: S937L,I895T,L695F,I558V,F189S,L131I)	0.06 mg/L [S]	0.03 mg/L [S]	0.03 mg/L [S]	≤ 0.008 mg/L [S]	0.5 mg/L [S]	0.5 mg/L [S]	0.015 mg/L [S]	0.03 mg/L [S]	≤ 0.06 mg/L [S]
Candida albicans isolate 217 (Erg11p: E266D, Fur1p: WT, Tac1p: N896S,I558V,A377V,F189S,N174D,M170I,K87N)	≤ 0.015 mg/L [S]	0.03 mg/L [S]	0.12 mg/L [S]	0.5 µg/mL	4 µg/mL	0.5 mg/L [S]	0.015 mg/L [S]	0.06 mg/L [S]	0.25 mg/L [S]
Candida albicans isolate 135 (Erg11p: V437I,E266D, Fur1p: WT, Tac1p: L695F,I558V,A377V,F189S,N174D,M170I,L131I,K87N)	≤ 0.015 mg/L [S]	0.03 mg/L [S]	0.03 mg/L [S]	0.015 mg/L [S]	0.5 mg/L [S]	0.5 mg/L [S]	0.015 mg/L [S]	0.015 mg/L [S]	≤ 0.06 mg/L [S]
Candida albicans isolate 225 (Erg11p: V437I,E266D, Fur1p: WT, Tac1p: S937L,I895T,L695F,I558V,F189S)	0.03 mg/L [S]	0.03 mg/L [S]	≤ 0.015 mg/L [S]	≤ 0.008 mg/L [S]	0.5 mg/L [S]	0.5 mg/L [S]	0.015 mg/L [S]	0.015 mg/L [S]	≤ 0.06 mg/L [S]

Source: the supplement of paper PMC9927326
